# From the supplement of paper PMC12889115
# Some of the results follow. Single values are uncertain, as repeats are few or missing.
# System: Salmonella enterica serovar Typhimurium SL1344
# Assay: bacterial growth OD600 after 18 h in MHB with 0.5 µg/mL polymyxin B; higher = more bacterial growth (less inhibition)
# Conditions: 25 µM; polymyxin B 0.5 µg/mL; system: broth
# Experimental: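 Secondary screen of the 553 primary hits at 25 µM. (i) S. Typhimurium SL1344 grown in Mueller-Hinton broth with 0.5 µg/mL polymyxin B, OD600 read after 18 h. (ii) SAFIRE assay: RAW 264.7 macrophages infected with S. Typhimurium sifB::gfp (MOI 30); compound added 2 h post-infection; cells fixed at 18 h; GFP-positive pixel fraction per macrophage imaged by confocal microscopy and expressed as % of DMSO control.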
# 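Also: polymyxin B level opens the outer membrane while sparing the inner membrane, with novobiocin wells as reference growth inhibitor.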
row,SMILES,bacterial growth OD600
1,O=C(C#Cc1ccccc1)N1CCC(C2(c3cccnc3)NC(=O)N(CCc3cccs3)C2=O)CC1 (stereo unspecified),0.387
2,CC(C)CCN(C)Cc1cnc(S(=O)(=O)C(C)C)n1CCc1ccccc1,0.011
3,CCOC(=O)C1(Cc2ccc(F)cc2)CCCN(C(=O)c2cc(C3CC3)n[nH]2)C1 (stereo unspecified),0.006
4,O=C(NCc1n[nH]c2c1CCC2)c1coc(COc2ccc(F)cc2)n1,0.5
5,COCc1noc(-c2ccc(N3CCCC3c3nccs3)nc2)n1 (stereo unspecified),0.666
6,O=C(CC1(c2ccccc2Cl)CC(=O)N(C2CCCC2)C1=O)N1CCCCCC1 (stereo unspecified),0
